Test results taken from PubChem BioAssay AID624417 (National Center for Advancing Translational Sciences (NCATS), 2012).
The campaign covered roughly 410,000 compounds. About 6,400 (1.6%) were called active. Inconclusive means that the source gave no clear call. Such entries were picked first, then a sample of the others. Calls come from the whole dose curve; as a rule, active = well fitted inhibition curve with a large enough effect; inconclusive = small, poorly fitted or top-dose-only effect; inactive = no such curve, though single readings can be large or run the other way. Potencies of inconclusive entries are left out as doubtful fits.

The compounds below were run against Glucagon-like peptide 1 receptor (Homo sapiens) (UniProt P43220) (assay: qHTS of GLP-1 Receptor Inverse Agonists (Inhibition Mode)). Conditions: HEK293 GLP-1R CRE-luciferase, luminescence, 24 h, GLP-1R form is constitutively active; activity change, negative = inhibition: at 38.3 µM (top of the series) unless noted.
Summary of the method: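 Cells are plated, allowed 12 hours at 37 deg C, then treated with compounds for 24 hr before luciferase detection reagent is added and luminescence is read after 12 min at room temperature. The HEK293 line carries constitutively active GLP-1R with a cAMP-responsive reporter.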
% is set by controls: 0 for no effect and ±100 for the full control effect; potency is the fitted concentration of half-maximal effect; tags give direction and shape of the fitted curve.
Note: nearly all actives have a fitted effect of over 55% in size.

Sequence of UniProt P43220 (P43220 whole entry, looked up): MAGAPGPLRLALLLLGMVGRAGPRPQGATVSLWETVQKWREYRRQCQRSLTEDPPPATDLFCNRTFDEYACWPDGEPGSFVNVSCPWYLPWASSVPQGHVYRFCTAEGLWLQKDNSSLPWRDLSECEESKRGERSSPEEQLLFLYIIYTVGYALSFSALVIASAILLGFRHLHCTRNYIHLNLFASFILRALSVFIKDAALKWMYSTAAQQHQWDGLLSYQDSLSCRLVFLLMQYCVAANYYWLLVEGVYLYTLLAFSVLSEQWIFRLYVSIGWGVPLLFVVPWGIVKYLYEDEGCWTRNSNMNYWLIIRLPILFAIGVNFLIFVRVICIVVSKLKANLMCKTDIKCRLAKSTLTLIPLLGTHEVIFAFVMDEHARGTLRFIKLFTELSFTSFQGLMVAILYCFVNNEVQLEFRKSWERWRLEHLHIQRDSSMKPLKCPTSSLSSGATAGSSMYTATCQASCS

Structure (SMILES)	Potency	activity change, negative = inhibition
CCCC1(c2ccccc2)NC(=O)N(CC(=O)c2[nH]c(C)c(C(=O)OCC)c2C)C1=O (stereo not drawn)	inconclusive [inhibitor, full curve, poor fit]	–
Cc1cnc(NC(=O)CC2CCCC2)s1	inconclusive [inhibitor, single point]	–
COc1cccc(C2=CC(=O)C[C@H](c3ccc4c(c3)OCO4)C2)c1	inconclusive [inhibitor, single point]	–
CC(C)=CCCC(C)CN1CCC(n2nccc2NC(=O)c2cccnc2)CC1 (stereo not drawn)	inconclusive [inhibitor, single point]	–
Cc1ccc(C(C(=O)NC2CCCCC2)N(Cc2ccccc2)C(=O)Cc2c[nH]c3ccccc23)o1 (stereo not drawn)	inconclusive [inhibitor, partial curve, poor fit]	–
CC(C)c1ccc(C2CC(c3ccc(Br)cc3)=NN2C(N)=S)cc1 (stereo not drawn)	inconclusive [inhibitor, partial curve, poor fit]	–
COc1ccc(CC(=O)N(C)Cc2ccc(C(C)(C)C)cc2)cc1S(=O)(=O)N1CCOCC1	inconclusive [inhibitor, single point]	–
CCOC(=O)c1nnn(CC(=O)N2N=C(c3ccc(Cl)cc3)CC2c2ccccc2)c1C(=O)OCC (stereo not drawn)	inactive	–
CCOC(=O)c1cc(C)n(-c2ccccc2)c1C	inactive	–
Cc1cccn2c(=O)c3cc(C(=O)NCc4ccco4)c(=N)n(CCc4ccccc4)c3nc12	inactive	–
S=C1NC2=C(CCCC2=C2SCCS2)C(c2ccccc2)N1 (stereo not drawn)	inactive	–
Cc1ccc2c(c1)C1CN(C)CCC1N2S(=O)(=O)c1cc(C(F)(F)F)ccc1Cl (stereo not drawn)	inconclusive [inhibitor, partial curve, poor fit]	–
Cc1cccc(C(C)C)c1NC(=O)c1cc2ccccc2o1	inconclusive [inhibitor, single point]	–
COc1cccc(N2C(C(C)=O)=NN(c3ccccc3)C2c2ccc(N3CCOCC3)cc2)c1 (stereo not drawn)	inactive	–
COc1ccc(C(=O)c2ccc(OC)cc2O)c(O)c1	inconclusive [inhibitor, single point]	–
O=C(CN1CCC(NC(=O)c2cccc(F)c2)CC1)Nc1ccc(Br)cc1	inconclusive [inhibitor, full curve, poor fit]	–
CC(C)(C)NC(=S)N/N=C/c1c(Cl)cccc1Cl	inconclusive [inhibitor, full curve, poor fit]	–
Nc1nc(Cl)c(N)c(NCC2(CO)CC(CCc3ccccc3)C2)n1 (stereo not drawn)	inconclusive [inhibitor, single point]	–
COc1ccc(CNC(=O)c2cccc(N3CCCS3(=O)=O)c2)cc1OC	inconclusive [inhibitor, full curve, poor fit]	–
CCN(CC)S(=O)(=O)c1ccc(C(=O)NCc2ccc3[nH]c4c(c3c2)CCCC4)cc1	inactive	–
CCCCc1ccc(NS(=O)(=O)c2cccc(C(=O)N3CCCN(C)CC3)c2)cc1	inconclusive [inhibitor, single point]	–

Structure (SMILES)	Potency	activity change, negative = inhibition
CCCCn1c(N)c(N(CCOC)C(=O)c2ccc(-c3ccc(Cl)cc3)o2)c(=O)[nH]c1=O	inconclusive [inhibitor, partial curve, poor fit]	–
Cc1c(C(=O)N(Cc2cccc(F)c2)C2CCS(=O)(=O)C2)oc2cc(Br)ccc12 (stereo not drawn)	inconclusive [inhibitor, single point]	–
c1ccc(-c2cc(N3CCCCCC3)n[nH]2)cc1	inconclusive [inhibitor, single point]	–
O=c1cc(-c2ccc(F)cc2)nc(SCc2nc(-c3cccc(C(F)(F)F)c3)no2)[nH]1	inactive	–
Cc1cccnc1C(c1ccc(F)cc1)N(C)C(=O)C1CCN(CCCOc2ccc(F)cc2)CC1 (stereo not drawn)	inconclusive [inhibitor, partial curve, poor fit]	–
CN(C)c1ccc(CNC(=O)CCNS(=O)(=O)c2cc(Br)cnc2N)cc1	active: 4.47 µM	–
COc1ccc(NC(=O)CN2C(=O)C3(SCC(=O)N3c3ccccc3)c3ccccc32)cc1Cl (stereo not drawn)	inactive	–
CCc1cccc(C)c1NC(=S)N(CCCN1CCN(C)CC1)Cc1cccs1	inconclusive [inhibitor, partial curve, poor fit]	–
COc1ccc(/C=C2\CCc3ccccc3C2=O)cc1OC	inactive	–
CC1CCCCC1NC(=O)COC(=O)c1c2c(nc3ccccc13)/C(=C\c1ccco1)CC2 (stereo not drawn)	inactive	–
COc1cc(-c2nnc(COC(=O)c3nn(CC(C)C)c(=O)c4ccccc34)o2)cc(OC)c1OC	inactive	–
Cc1nc(-c2ccccn2)nc(N(C)c2ccccc2)c1Cl	inconclusive [inhibitor, full curve, poor fit]	–
CC1CC(C)CN(C(=O)C2CC(=O)N(c3ccc(F)cc3)C2)C1 (stereo not drawn)	inconclusive [inhibitor, single point]	–
O=C(CSc1cccc[n+]1[O-])c1ccc(Cl)cc1	inconclusive [inhibitor, single point]	–
COc1ccc(NC(=O)c2ccccc2-c2ccccc2)c(C)c1	inconclusive [inhibitor, partial curve, poor fit]	–
CC(C)c1ccc(NC(=O)C2CCCN2S(=O)(=O)c2ccccc2F)cc1 (stereo not drawn)	inconclusive [inhibitor, partial curve, poor fit]	–
COc1cccc(CC2(CO)CCN(CC3=CC[C@H]4C[C@@H]3C4(C)C)CC2)c1	inconclusive [inhibitor, partial curve, poor fit]	–
Cc1ccc(NC(=O)c2cnn(-c3ccccc3)c2C)cc1C	inconclusive [inhibitor, partial curve, poor fit]	–
COc1ccc(C(=O)N/N=C/c2ccc(OC)c(COc3c(F)c(F)cc(F)c3F)c2)cc1	inconclusive [inhibitor, full curve]	–
Cc1ccc(CN(Cc2cccn2-c2nnc(N3CCCC3=O)s2)C(=O)Nc2ccccc2C(F)(F)F)cc1	inconclusive [inhibitor, single point]	–
CCn1c2ccccc2c2cc(N)ccc21	inconclusive [inhibitor, single point]	–

Structure (SMILES)	Potency	activity change, negative = inhibition
COc1cc(C2NCC(c3ccc(Cl)cc3Cl)c3c2[nH]c2ccccc32)cc(OC)c1OC (stereo not drawn)	inconclusive [inhibitor, full curve, poor fit]	–
CCOc1ccc(C2CC(=O)c3c([nH]c(C(=O)OC4CCC(C)CC4)c3C)C2)cc1 (stereo not drawn)	inconclusive [inhibitor, single point]	–
CSc1ccccc1OCc1cc(C(=O)N(C)Cc2ccc(C)o2)no1	inconclusive [inhibitor, full curve, poor fit]	–
CCOC(=O)N1CCc2c(sc3nc(SC(C)C)n(N)c(=O)c23)C1	inconclusive [inhibitor, single point]	–
CCOC(=O)Cc1csc(NC(=O)CSC2=NCCS2)n1	inactive	–
CCn1c(/C(C#N)=C/c2ccccc2Cl)nc2ccccc21	inconclusive [inhibitor, partial curve, poor fit]	–
S=C1NCCc2ccccc2C1c1ccccc1Cl (stereo not drawn)	inconclusive [inhibitor, single point]	–
Nc1c(-c2ccccc2)cnn1-c1cccc(Cl)c1	–	inconclusive: -61.3% [inhibitor]
Cc1ccc2nc(SCc3nnc(-c4ccccc4Br)o3)[nH]c2c1	inconclusive [inhibitor, single point]	–
CCc1nc(SCc2cc(=O)c3cc(C)ccc3[nH]2)n[nH]1	inactive	–
Cc1ccc(C)c(NC(=O)CN(C)C(=O)c2cc(C3CC3)nn2-c2ccccc2)c1	inconclusive [inhibitor, partial curve, poor fit]	–
CC(C)NC(=O)/C(C#N)=C/c1cccc(NC(=O)c2ccccc2Cl)c1	inconclusive [inhibitor, partial curve, poor fit]	–
c1ccc(N2N=C(c3cccs3)CC2c2ccco2)cc1 (stereo not drawn)	inconclusive [inhibitor, single point]	–
O=S(=O)(c1ccc(Cl)cc1)c1nc(-c2ccccc2)oc1N1CCN(c2ccccc2)CC1	inactive	–
Cc1ccc(NC(=O)CSC2=NN3CCCC(=O)N=C3S2)cc1Cl	inconclusive [inhibitor, full curve, poor fit]	–
COc1ccc(-c2ncc(CN3CCC(CO)(Cc4cccc(OC)c4)CC3)cn2)cc1	inconclusive [inhibitor, partial curve]	–
CCNc1cc2oc(=O)c(CN3CCOCC3)c(C)c2cc1C	inconclusive [inhibitor, full curve, poor fit]	–
CN(Cc1ccccc1)C(=O)CN1CCN(S(=O)(=O)c2ccc(Cl)c(Cl)c2)CC1	inconclusive [inhibitor, partial curve, poor fit]	–
CC(NC(=O)COC(=O)/C(=C/c1cccs1)c1cccs1)c1ccccc1 (stereo not drawn)	inconclusive [inhibitor, partial curve, poor fit]	–
COc1ccc(Nc2c3c(nc4ccc(NC(=O)/C=C/c5cccc(OC)c5OC)cc24)CCCC3)cc1OC	inconclusive [inhibitor, partial curve, poor fit]	–
Cc1ccc(S(=O)(=O)N2CCC(NC(=O)c3cccnc3)CC2)cc1Cl	inconclusive [inhibitor, partial curve, poor fit]	–
